# Measured values taken from PubChem BioAssay AID504332 (National Center for Advancing Translational Sciences (NCATS), 2011).
# Among all 350,000 compounds or so, about 31,000 (8.9%) were called active. This list was built around the results that the source calls inconclusive (neither active nor inactive); the mix of calls is not that of the screen. Calls follow the shape of the dose curve; as a rule, active = well fitted inhibition curve with a large enough effect; inconclusive = small, poorly fitted or top-dose-only effect; inactive = no such curve, though single readings can be large or run the other way. A potency beside an inconclusive call is a rough fit, not a confirmed value.
# Molecular target: Histone-lysine N-methyltransferase EHMT2 (Homo sapiens) (UniProt Q96KQ7)
# Assay: qHTS Assay for Inhibitors of Histone Lysine Methyltransferase G9a; also: nearly all actives have a fitted effect of over 75% in size
# Conditions: G9a H3K9 monomethylation, AlphaScreen, 2 h; activity, negative = inhibition: at 59 µM (top of the series) unless noted
# Summary of the method: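 G9a (20 nM) was preincubated 15 min with compound, then reacted 2 h at room temperature with 500 nM biotin-H3K9 peptide and 20 µM SAM. Monomethyl-H3K9 detected by AlphaScreen using anti-H3K9me1 antibody.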
# % is scaled to controls: 0 for no effect and ±100 for the full control effect; potency is read from the fitted curve at half-maximal effect; tags tell the direction and shape of the fitted curve.
# Sequence of UniProt Q96KQ7 (Q96KQ7 whole entry, looked up): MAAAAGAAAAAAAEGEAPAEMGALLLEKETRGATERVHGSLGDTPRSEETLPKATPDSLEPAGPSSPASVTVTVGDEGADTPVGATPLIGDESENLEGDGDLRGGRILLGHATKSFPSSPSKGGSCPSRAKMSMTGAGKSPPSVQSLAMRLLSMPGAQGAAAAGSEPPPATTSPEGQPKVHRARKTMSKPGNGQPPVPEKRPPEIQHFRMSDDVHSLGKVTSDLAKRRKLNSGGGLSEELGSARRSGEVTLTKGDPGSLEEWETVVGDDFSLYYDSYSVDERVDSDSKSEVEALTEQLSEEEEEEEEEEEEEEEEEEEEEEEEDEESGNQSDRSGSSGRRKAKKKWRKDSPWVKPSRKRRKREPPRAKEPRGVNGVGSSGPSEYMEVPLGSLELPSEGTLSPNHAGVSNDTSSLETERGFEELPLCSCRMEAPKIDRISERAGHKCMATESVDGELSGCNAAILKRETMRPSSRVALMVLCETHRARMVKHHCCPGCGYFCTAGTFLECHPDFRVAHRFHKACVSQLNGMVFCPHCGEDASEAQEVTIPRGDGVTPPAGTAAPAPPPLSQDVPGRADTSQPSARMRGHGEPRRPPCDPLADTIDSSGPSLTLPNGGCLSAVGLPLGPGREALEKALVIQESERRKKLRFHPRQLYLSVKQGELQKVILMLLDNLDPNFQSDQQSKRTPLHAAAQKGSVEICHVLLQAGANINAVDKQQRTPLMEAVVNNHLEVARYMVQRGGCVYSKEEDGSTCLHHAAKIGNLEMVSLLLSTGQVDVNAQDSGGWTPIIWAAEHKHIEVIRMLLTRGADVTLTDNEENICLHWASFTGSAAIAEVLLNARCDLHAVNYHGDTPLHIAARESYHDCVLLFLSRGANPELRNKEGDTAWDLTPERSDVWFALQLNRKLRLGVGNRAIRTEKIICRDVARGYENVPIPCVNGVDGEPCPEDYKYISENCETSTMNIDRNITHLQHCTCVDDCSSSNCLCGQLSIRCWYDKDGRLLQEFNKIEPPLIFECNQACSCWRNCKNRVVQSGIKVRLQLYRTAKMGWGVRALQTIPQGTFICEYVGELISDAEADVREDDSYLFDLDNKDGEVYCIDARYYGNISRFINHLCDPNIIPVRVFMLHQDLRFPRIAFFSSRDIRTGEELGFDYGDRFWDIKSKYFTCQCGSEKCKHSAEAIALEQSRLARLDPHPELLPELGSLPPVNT
Compound,Potency,"activity, negative = inhibition"
CN(C)c1ccc(/C=C(\NC(=O)c2ccccc2)C(=O)N/N=C/c2ccc(C(=O)O)cc2)cc1,"inconclusive: 89.1 µM [inhibitor, single point]",–
CCCCc1ccc(NC(=S)Nc2ccc(Cl)c(S(=O)(=O)N(C)C)c2)cc1,"inconclusive: 31.6 µM [inhibitor, single point]",–
CC1(c2ccc3ccccc3c2)NC(=O)N(CC(=O)N2CCN(Cc3ccc(C#N)cc3)CC2)C1=O (stereo not drawn),"inconclusive: 79.4 µM [inhibitor, partial curve, poor fit]",–
O=C(O)CNC(=O)/C=C/c1ccc(Cl)cc1Cl,"inconclusive: 50.1 µM [inhibitor, partial curve, poor fit]",–
CC(OC(=O)c1ccccn1)C(=O)Nc1ccc2c(c1)OCCO2 (stereo not drawn),"inconclusive: 15.8 µM [inhibitor, single point]",–
CCOc1ccc(NC(=O)NC(=O)N(C)S(=O)(=O)c2ccc(C)cc2)cc1,"inconclusive: 1.78 µM [inhibitor, full curve, poor fit]",–
N/C(=N\OC(=O)/C=C/c1ccccc1)c1ccncc1,inactive,–
CC1CCc2nc(NC(=O)Nc3ccc4c(c3)OCO4)sc2C1 (stereo not drawn),"inconclusive: 17.8 µM [inhibitor, partial curve, poor fit]",–
Cc1cccc(C)c1N1C(=O)[C@@H]2C(c3ccccc3Cl)=NO[C@@H]2C1=O,active: 50.1 µM,–
OCCN=C(c1ccccc1)C12CN3CN(CN(C3)C1)C2,inactive,–
Cc1cc2nc(-c3ccc[nH]c3=O)n(Cc3ccccc3F)c2cc1C,"inconclusive: 89.1 µM [inhibitor, single point]",–
Cc1ccc(S(=O)(=O)n2nc(C)c(S(=O)(=O)N3CCOCC3)c2C)cc1,active: 35.5 µM,–
Cc1ccc(-n2c(-c3ccco3)nc3nc4ccccc4nc32)cc1F,–,inconclusive: -69% [inhibitor]
CC(=O)Nc1ccc(SCC(=O)Nc2ccc(Cl)cn2)cc1,"inconclusive: 0.501 µM [inhibitor, full curve, poor fit]",–
CC1(C)Cc2c(sc3c2c(=N)n(Cc2ccco2)c(=O)n3Cc2ccccc2)CO1,–,inconclusive: -59.4% [inhibitor]
COc1ccc(CCNC(=O)CCc2c(C)nc3c4c(C)cc(C)nc4nn3c2C)cc1OC,inactive,–
O=[N+]([O-])c1ccc(Cl)c2cccnc12,inactive,–
O=C(CSc1ncn[nH]1)Nc1ccc(Cl)c(Cl)c1,active: 44.7 µM,–
Cc1ccc(C(=O)/C=C/c2ccccc2)o1,inactive,–
O=C(NCC1CCCO1)c1ccc2c(=O)n(CC3CCCO3)c(=S)[nH]c2c1 (stereo not drawn),"inconclusive: 22.4 µM [inhibitor, single point]",–
CCc1nnc2sc(-c3ccc(NC(=O)c4ccco4)cc3)nn12,"inconclusive: 100 µM [inhibitor, single point]",–
CCOc1ccccc1Nc1nc2ccccc2c2nncn12,inactive,–

Compound,Potency,"activity, negative = inhibition"
O=C(CNC(=S)N(CCCN1CCOCC1)Cc1cccs1)NCc1ccc(Cl)cc1,"inconclusive: 89.1 µM [inhibitor, single point]",–
O=C(Nc1nnc(C2CC2)s1)c1cc2ccccc2o1,active: 14.1 µM,–
O=C(/C=C/c1ccc(Cl)cc1)N1CCN(c2ccc(Cl)cc2[N+](=O)[O-])CC1,–,inconclusive: -87.9% [inhibitor]
Cc1nc2ccccc2c(=O)n1/N=C/c1cn(-c2ccccc2)nc1-c1cccs1,"inconclusive: 35.5 µM [inhibitor, partial curve, poor fit]",–
CC(=O)NC(Cc1ccccc1F)C(=O)NC1CCN(c2ncccc2[N+](=O)[O-])CC1 (stereo not drawn),"inconclusive: 70.8 µM [inhibitor, single point]",–
CCOc1ccc(Br)cc1S(=O)(=O)Nc1ccc(N2CCOCC2)cc1,active: 11.2 µM,–
Cc1cccc(C(=O)Oc2coc(CSc3nnc(NC(=O)C4CC4)s3)cc2=O)c1,"inconclusive: 79.4 µM [inhibitor, single point]",–
Cc1ccc(C2/C(=C(\O)c3ccc4c(c3)OCCO4)C(=O)C(=O)N2CC2CCCO2)cc1 (stereo not drawn),active: 50.1 µM,–
O=c1[nH]c2ccc(S(=O)(=O)N3CCCCC3)cc2o1,"inconclusive: 15.8 µM [inhibitor, partial curve, poor fit]",–
CN(CCCNC(=O)C1CCCN(S(=O)(=O)c2cnc[nH]2)C1)c1ccccc1 (stereo not drawn),"inconclusive: 31.6 µM [inhibitor, partial curve, poor fit]",–
COc1ccc2c(c1)cc(CNc1ccc(OC)c(OC)c1)c(=O)n2CC(=O)Nc1ccccc1C,"inconclusive: 3.16 µM [inhibitor, partial curve, poor fit]",–
COc1ccc(CC(=O)OCC(=O)N2CCN(S(=O)(=O)c3ccc(C)cc3C)CC2)cc1OC,"inconclusive: 0.794 µM [inhibitor, full curve, poor fit]",–
CCc1cc2c(=O)c(-c3nc4ccccc4n3C)coc2c(CN2CCN(C)CC2)c1O,"inconclusive: 3.55 µM [inhibitor, single point]",–
O=C(NNc1ccc(-c2csnn2)cc1)c1ccccc1C(F)(F)F,active: 28.2 µM,–
COc1ccc(CCN2CC(C(=O)OCC(=O)N(C)Cc3ccccc3)CC2=O)cc1OC (stereo not drawn),–,inactive: 11.7% [at 12.7 µM]
CCc1ccc(CN(C)C(=O)CC2C(=O)NCCN2Cc2ccoc2)cc1 (stereo not drawn),"inconclusive: 70.8 µM [inhibitor, partial curve, poor fit]",–
Nc1c(C(=O)Nc2ccccc2)sc2nc(-c3cccnc3)ccc12,"inconclusive: 2 µM [inhibitor, partial curve, poor fit]",–
O=C1CC(Nc2ccc(N3CCOCC3)cc2)C(=O)N1Cc1ccccc1 (stereo not drawn),active: 8.91 µM,–
CN(C)CCNC(=O)c1sc2nc(-c3ccccc3)cc(C(F)(F)F)c2c1N,"inconclusive: 89.1 µM [inhibitor, single point]",–
CC1(C)OC(=O)N(c2ccccc2)C12C=Cc1c(ccc3ccccc13)O2 (stereo not drawn),"inconclusive: 39.8 µM [inhibitor, single point]",–
Cc1nc(C)c(-c2ccc(SCC(=O)Nc3ccccc3)nn2)s1,active: 79.4 µM,–
